In a compilation of properties of binary mixtures (doi:10.1016/j.molliq.2022.118621):
Some of these densities may be calculated back from excess volumes.

Test: xn = mol fraction of the nth substance listed
Details: 100 kPa

CC(=O)[O-].CCOCCn1cc[n+](C)c1 + O
mass density [kg/m3]
Details	288.15 K	293.15 K	298.15 K	303.15 K	308.15 K	313.15 K	318.15 K
x1 = 0.8294	1106.2	1102.8	1099.2	1095.8	1092.3	1088.8	1085.2
x1 = 0.852	1106.3	1102.9	1099.4	1095.9	1092.4	–	1085.4
x1 = 0.8822	1106.5	1103	1099.5	1096.1	–	–	1085.5
x1 = 0.9125	1106.7	–	1099.7	1096.2	1092.7	1089.2	1085.7
x1 = 0.9447	1106.8	–	–	–	1092.9	1089.4	1085.9
x1 = 1	1107.1	1103.6	1100.1	1096.6	1093.2	–	1086.2

CC(O)C(=O)[O-].CCOCCn1cc[n+](C)c1 + O
mass density [kg/m3]
Details	288.15 K	293.15 K	298.15 K	303.15 K	308.15 K	313.15 K	318.15 K
x1 = 0.8091	1135.3	–	1127.8	1124.2	–	1116.8	1113.2
x1 = 0.8366	1135.5	–	1128	1124.4	–	1117	1113.4
x1 = 0.87	1135.7	1132	–	1124.6	–	1117.3	1113.7
x1 = 0.9014	1135.9	–	1128.5	1124.8	1121.2	1117.5	–
x1 = 0.9386	1136.2	1132.5	1128.7	–	1121.4	1117.8	1114.1
x1 = 1	1136.5	1132.8	1129.1	1125.4	1121.8	1118.2	1114.5
